Measurements reported in publication PMC4336329 (PLoS ONE, 2015).
Out of some 310,000 compounds screened, about 2,200 (0.71%) showed an effect of 50% or more. The effect is printed as a negative number. Some of the results follow.

biological target: human ether-à-go-go-related gene (hERG) potassium channel (human, UniProt Q12809); test: primary screen, population patch clamp on CHO cells stably expressing hERG
Sequence (Q12809 whole entry, looked up): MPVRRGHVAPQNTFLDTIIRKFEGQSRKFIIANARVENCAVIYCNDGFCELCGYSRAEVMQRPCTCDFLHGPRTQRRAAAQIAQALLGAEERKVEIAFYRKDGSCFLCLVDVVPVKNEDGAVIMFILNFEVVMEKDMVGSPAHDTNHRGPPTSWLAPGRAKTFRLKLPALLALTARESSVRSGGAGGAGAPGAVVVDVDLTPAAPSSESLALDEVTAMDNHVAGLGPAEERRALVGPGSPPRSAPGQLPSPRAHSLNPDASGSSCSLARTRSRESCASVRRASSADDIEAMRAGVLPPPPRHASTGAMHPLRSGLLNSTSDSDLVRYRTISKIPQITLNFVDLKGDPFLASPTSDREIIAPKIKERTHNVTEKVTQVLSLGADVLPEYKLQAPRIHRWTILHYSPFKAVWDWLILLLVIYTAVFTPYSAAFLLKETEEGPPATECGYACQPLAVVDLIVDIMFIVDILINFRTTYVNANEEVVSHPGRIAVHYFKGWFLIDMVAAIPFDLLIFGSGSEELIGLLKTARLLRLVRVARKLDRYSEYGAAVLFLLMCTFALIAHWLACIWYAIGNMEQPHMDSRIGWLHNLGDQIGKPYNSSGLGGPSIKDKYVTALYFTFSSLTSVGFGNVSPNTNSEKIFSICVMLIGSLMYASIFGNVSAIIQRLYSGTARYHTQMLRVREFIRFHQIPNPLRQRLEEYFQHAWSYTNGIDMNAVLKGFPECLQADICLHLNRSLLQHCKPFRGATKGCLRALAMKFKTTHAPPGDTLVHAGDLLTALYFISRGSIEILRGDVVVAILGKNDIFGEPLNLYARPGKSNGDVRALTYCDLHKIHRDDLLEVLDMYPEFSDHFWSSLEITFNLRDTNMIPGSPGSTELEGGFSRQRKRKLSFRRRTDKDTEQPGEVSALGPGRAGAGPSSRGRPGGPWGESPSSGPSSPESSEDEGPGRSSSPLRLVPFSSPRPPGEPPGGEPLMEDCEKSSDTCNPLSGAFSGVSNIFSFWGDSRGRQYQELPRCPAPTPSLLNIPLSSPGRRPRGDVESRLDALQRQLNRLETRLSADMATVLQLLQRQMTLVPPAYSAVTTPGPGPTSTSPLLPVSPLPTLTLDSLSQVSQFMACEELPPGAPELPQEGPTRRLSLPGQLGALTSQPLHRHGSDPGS

Compound | hERG current change (%, negative = inhibition) at 1uM [%]
FC(F)(F)c1ccc2c(c1)[nH]c(=S)n2C1CC1 | 12.2
Cc1cccc(NC(=O)c2sc3nc(-c4ccccc4)cn3c2C)n1 | 1.46
CCCn1c(N)c(C(=O)CSc2nc3ccccc3c(=O)n2-c2ccc(OC)cc2)c(=O)[nH]c1=O | 7.57
CC1(C)NC(=O)N(CNc2cc(Cl)ccc2Cl)C1=O | 12.9
COc1cc(/C=C2\SC(=S)N(CCCCC(=O)O)C2=O)ccc1OS(=O)(=O)c1ccc(C)cc1 | 17.2
O=C(Nc1ccc(F)cc1)C1CCN(S(=O)(=O)c2cccs2)CC1 | 3.71
O=C(O)CNC(=O)c1ccc(NC(=O)/C(=C/c2cccc([N+](=O)[O-])c2)NC(=O)c2ccco2)cc1 | 12.9
CC1CC(=O)Nc2ccccc2S1(=O)=O (stereo not drawn) | 7.5
CC1Cc2ccccc2N1C(=O)COC(=O)CNC(=O)c1ccc(Br)o1 (stereo not drawn) | -10.7
Cc1ccc(C)c(OCCC(=O)Nc2cccc(S(=O)(=O)NC3=NCCCCC3)c2)c1 | 8.74
CCn1c2ccccc2c2cc(C3C(C#N)=C(C)NC(C)=C3C#N)ccc21 | 7.15
COc1ccc(-c2nnn(CC(=O)NCc3ccc4c(c3)OCO4)n2)cc1OC | 12.6
CSc1nc2cc(C)nn2c(-c2ccccc2Cl)c1C#N | 8.86
O=C(O)CNC(=O)C(CS)Cc1ccccc1 (stereo not drawn) | 11.5
Cc1c(O)nc(SCC(=O)Nc2ccc3c4c(cccc24)CC3)n(-c2ccc(F)cc2)c1=O | 4.92
Cc1cc(C(=O)NNC(=O)c2nn(C)c(=O)c3ccccc23)c(C)o1 | 6.01
CCCOC(=O)C1=C(C)N(C)C(=O)NC1c1cc2c(cc1Br)OCO2 (stereo not drawn) | 8.33
NCCSc1c(-c2ccccc2)[nH]c2ccccc12 | 9.38
O=C(NCc1cccs1)c1ccc2c(c1)OCCO2 | 13.1
O=C(CN1CCC(C(=O)c2ccc(Cl)cc2)CC1)NC1CCCC1 | 2.16
C[C@H](NC(=O)[C@@H]1Cc2ccccc2CN1)C(=O)Nc1ccc2c(c1)OCO2 | 19.1
CC(C)Cc1nnc(NC(=O)CC(=O)Nc2ccccc2C(=O)O)s1 | 10.3

Compound | hERG current change (%, negative = inhibition) at 1uM [%]
O=C(Cn1cnc([N+](=O)[O-])n1)NCc1ccccc1 | 3.67
CCc1nc(C)cn1S(=O)(=O)c1cc(F)ccc1OC | 16.9
CCOC(=O)CCNC(=O)Nc1ccc2nc(C)n(Cc3ccc(Cl)cc3)c(=O)c2c1 | -2.25
CCOC(=O)c1cc(-c2csc(N/N=C/c3ccccc3Cl)n2)on1 | 2.17
CCn1c(SCC(=O)N(C(C)C)C(C)C)nnc1-c1cc2ccccc2cc1O | 7.68
O=C(Nc1ccccc1)Nc1nnc(-c2ccccc2)s1 | 5.59
Cc1cc(C(=O)CSc2nnc(-c3ccccc3)n2Cc2ccc3c(c2)OCO3)c(C)n1C | 14.5
N#Cc1ccccc1NC(=O)c1ccc2c(c1)OCCO2 | 7.25
Cc1c(NC(=O)CSc2nnc(-c3ccncc3)o2)c(=O)n(-c2ccccc2)n1C | 3.76
CCCOc1ccc(-c2c(C(=O)N/N=C(\C)c3cccnc3)nnn2-c2nonc2N)cc1 | 13.1
COc1ccc(C(CNC(=O)c2cccc(S(=O)(=O)Nc3cccc(C)c3)c2)N2CCOCC2)cc1 (stereo not drawn) | 4.48
COC(=O)c1ccc(NC(=O)CSc2nc(=O)cc(N)n2-c2ccccc2)cc1 | 10.7
Cc1cc(Nc2ccc(Br)cc2F)n2ncnc2n1 | 4.12
CCN(CC)S(=O)(=O)c1ccc(NC(=O)COC(=O)c2ccc(NC(=O)CC#N)cc2)cc1 | 17
COC(=O)CSc1nc2c(cnn2-c2ccc(Cl)cc2)c(=O)[nH]1 | 16.9
CC(=O)N1CCN(c2ccccc2NC(=O)c2ccco2)CC1 | -14.4
O=C(O)C(O)(c1ccccc1)C1CCCC1 (stereo not drawn) | 16.5
COc1ccc(CC(=O)N2CCN(c3ccccc3)CC2)cc1 | 14.6
Cc1c(C(C)NC(=O)Nc2ccc(F)cc2F)cnn1C (stereo not drawn) | 18.8
COCCNC(=O)CCc1nnc(Cc2ccc(-c3ccccc3)cc2)o1 | 13.7
COc1ccc(CCNC(=O)CN2CCN(S(=O)(=O)c3ccc(Cl)cc3)CC2)cc1OC | -3.42
O=c1[nH]nc(SCc2nnc(-c3cccc(Cl)c3)o2)n1C1CCCCC1 | 12.1

Compound | hERG current change (%, negative = inhibition) at 1uM [%]
CC(C)C(NC(=O)c1ccc(Cl)cc1)C(=O)NC1=NCCS1 (stereo not drawn) | 16.2
CN(C)CCNC(=O)c1c(NC(=O)c2ccccc2)sc2c1CCCC2 | 10.9
C=CCN1C(=O)c2ccc(C(=O)N(CC)CC(=O)Nc3ccc(OC)cc3)cc2C1=O | 3.97
Cc1ccc(Nc2nnc(SCc3cc(=O)n4cc(C)ccc4n3)s2)cc1 | -17.1
O=S(=O)(c1ccccc1)c1nc(-c2ccco2)oc1NCCCn1ccnc1 | -26.3
O=C(CN1C(=O)CN=C(c2ccccc2)c2ccccc21)NCc1ccco1 | 10.9
Cc1cc(C)cc(N(C(=O)c2ccccn2)C(C(=O)NC2CCCCC2)c2cccs2)c1 (stereo not drawn) | 4.39
CC(CC(F)(F)F)N1CCC(n2nccc2NC(=O)CCCc2ccccc2)CC1 (stereo not drawn) | -0.538
COc1cc2c3c(c1OC)C1(C=CC(=NO)C=C1)CC3N(C(C)=O)CC2 (stereo not drawn) | 15.7
CCOC(=O)c1cc(C(C)=O)c(=O)[nH]c1C | 7.09
Brc1ccc(-n2cccc2/C=N/n2cnnc2)cc1 | -5.43
COc1ccc2cc(C(=O)C3CCCN(C(=O)CCc4ccccn4)C3)ccc2c1 (stereo not drawn) | -5.66
CC(=O)c1ccc(N2CCN(C(=O)CCS(=O)(=O)c3ccc(C)cc3)CC2)cc1 | -9.1
O=C(COc1ccc2ccc(=O)oc2c1)Nc1c(Cl)cccc1C(F)(F)F | 8.4
CCN1C(=O)[C@@H]2[C@@H](c3ccc(-c4ccc(C(C)=O)cc4)c(OC)c3)N3CCCC[C@@]3(C(=O)OC)[C@@H]2C1=O.O=C(O)C(F)(F)F | 18.8
Cc1ccc(O)c(C(=O)c2coc(=N)c(C(=O)NC(C)C)c2)c1 | -14.3
CS(=O)(=O)CCC(C(=O)n1nnc2ccccc21)N1C(=O)c2ccccc2C1=O (stereo not drawn) | -3.98
NC(=O)/C(=C/c1ccco1)NC(=O)/C=C/c1ccccc1 | -1.45
Cn1cnnc1SCc1ccccc1Br | 12.6
O=C(CCSc1nnnn1-c1ccccc1)N1CCOCC1 | 1.86
N#Cc1nc(-c2ccccc2Cl)oc1N1CCN(C(=O)c2ccco2)CC1 | 2.44
CCOC(=O)C1Cc2ccccc2C(=O)O1 (stereo not drawn) | 15.1

Compound | hERG current change (%, negative = inhibition) at 1uM [%]
CCn1c(=O)c(-c2nc3ccccc3[nH]2)c(O)c2ccccc21 | 2.38
Cl.O=C(NCCN1CCOCC1)c1cn(-c2ccccc2)nc1-c1cccs1 | 6.73
Cc1cc2c(cc1S(=O)(=O)NCc1ccccc1)n(C)c(=O)c(=O)n2C | 2.88
Cn1c(N)c(C(=O)COC(=O)CNC(=O)c2ccccc2Cl)c(=O)n(C)c1=O | -4.52
Cc1ccc(NC(=O)NNC(=O)c2cccs2)cc1 | -8.12
COc1ccc(/C=C/c2onc(C)c2S(=O)(=O)N2CCC(C(=O)N3CCC(C)CC3)CC2)cc1 | 10.6
Cc1cc(C)c(NC(=O)CNC(=O)c2cc([N+](=O)[O-])ccc2N2CCOCC2)c(C)c1 | 7.99
Cc1occc1C(=O)N1CCN(S(=O)(=O)c2ccc(F)cc2)CC1 | -1.47
O=C1CCc2cc(S(=O)(=O)NCc3ccccc3)cc3c2N1CC3 | 6.02
Cc1cccc(C)c1NC(=O)CNC(=O)c1ccc2ccccc2n1 | 6.14
O=c1c2nnn(-c3ccc(Cl)cc3)c2ncn1Cc1ccccn1 | 0.0284
Cc1cc(NS(=O)(=O)c2ccc(NC(=S)NCc3ccccc3)cc2)no1 | 8.14
O=C(Nc1ccc(N2CCOCC2)cc1)C1(S(=O)(=O)c2ccccc2)CC1 | 16.4
CN(CC(=O)Nc1ccc(N2CCOCC2)cc1)CC(=O)Nc1ccc(N2CCOCC2)cc1 | 9.97
CC(C)c1ccc(C(=O)N(c2ccccn2)C(C)c2ccco2)cc1 (stereo not drawn) | -3.01
O=C(C(Cl)Cl)N1CCN(Cc2ccc3c(c2)OCO3)CC1 | 12.9
COc1ccc(S(=O)(=O)Nc2c(O)c3ccccc3oc2=O)cc1 | 14.9
CCCn1c(=O)c2c(ncn2C)n(CCC)c1=O | 3.69
N#Cc1cn(CCOc2ccccc2F)c2ccccc12 | 3.76
COc1ccc(CCC(=O)NC(C)C)cc1 | 14.3
Cc1nnc(SCC(=O)c2ccc(Cl)cc2)s1 | 8.62
